The text below walks through data of the supplement of paper PMC4967469.

For orientation: IC50 means the concentration that inhibits the measured activity by half.

By IC50 is meant the dose at which the fit gives 50% viability; where the fit passes the top or lowest dose, that dose stands as a limit. AUC is the area under the same curve over the 256-fold range up to the top dose, as a fraction; values near 1 show little effect. Bounds are passed on as bounds.

Compound in this assay: N#CC[C@H](C1CCCC1)n1cc(-c2ncnc3[nH]ccc23)cn1 [Ruxolitinib]
Description: Viability of human cancer cell lines after 72 h of drug (GDSC screen). As to the method: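 Human cancer cell lines in 384-well plates, medium with 10% serum, drug for 72 h over a 256-fold dose range (nine 2-fold or five 4-fold steps up to the top dose). Adherent lines were fixed and stained with the nucleic acid dye Syto60, suspension lines read with resazurin; signal relative to control wells, capped at 0 and 100%. One two-parameter sigmoid per drug and line, fitted in a mixed model over all curves with the slope shared within a line.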

As for “LAMA-84 (chronic myeloid leukaemia, suspension, top dose 5.24 µM)”, the AUC is 0.968 and the IC50 is > 5.24 µM.

With “RH-18 (rhabdomyosarcoma, adherent, top dose 5.24 µM)”, the AUC came out at 0.982 and the IC50 was > 5.24 µM.

“BC-1 (B-cell lymphoma, suspension, top dose 5.24 µM)”: the AUC came to 0.933 and the IC50 is > 5.24 µM.

“KMOE-2 (acute myeloid leukaemia, suspension, top dose 5.24 µM)”: the AUC was found to be 0.99 and the IC50 is > 5.24 µM.

“LC-2-ad (lung adenocarcinoma, adherent, top dose 5.24 µM)”: the AUC was 0.963 and the IC50 is > 5.24 µM.

For the cell line “CTV-1 (acute myeloid leukaemia, suspension, top dose 5.24 µM)”, the AUC is 0.932 and the IC50 is > 5.24 µM.

KGN (ovary, adherent, top dose 5.24 µM): the AUC was 0.98 and the IC50 was > 5.24 µM.

Consider “PSN1 (pancreas, adherent, top dose 5.24 µM)”, for which the AUC was found to be 0.991 and the IC50 is > 5.24 µM.

Take “NCI-H1993 (lung adenocarcinoma, adherent, top dose 5.24 µM)”: the AUC turned out to be 0.981 and the IC50 is > 5.24 µM.

Turning to “NCI-H2081 (small cell lung carcinoma, suspension, top dose 5.24 µM)”, the AUC turned out to be 0.987 and the IC50 was > 5.24 µM.

Take “WM278 (melanoma, adherent, top dose 5.24 µM)”: the AUC turned out to be 0.982 and the IC50 was > 5.24 µM.

In the case of “COR-L321 (lung, suspension, top dose 5.24 µM)”, the AUC was determined as 0.98 and the IC50 was > 5.24 µM.

Turning to “NCI-H2172 (non-small cell lung carcinoma, adherent, top dose 5.24 µM)”, the AUC was determined as 0.983 and the IC50 was > 5.24 µM.

Turning to “LU-99A (large cell lung carcinoma, adherent, top dose 5.24 µM)”, the AUC turned out to be 0.985 and the IC50 was > 5.24 µM.

In the case of “TE-441-T (rhabdomyosarcoma, adherent, top dose 5.24 µM)”, the AUC is 0.983 and the IC50 is > 5.24 µM.

Take “UMC-11 (lung carcinoid, adherent, top dose 5.24 µM)”: the AUC amounted to 0.991 and the IC50 was > 5.24 µM.

As to “SNU-C5 (large intestine, adherent, top dose 5.24 µM)”, the AUC worked out at 0.985 and the IC50 is > 5.24 µM.

For the cell line “KM-H2 (Hodgkin lymphoma, suspension, top dose 5.24 µM)”, the AUC was 0.993 and the IC50 is > 5.24 µM.

As for “KMRC-20 (kidney, adherent, top dose 5.24 µM)”, the AUC came out at 0.989 and the IC50 was > 5.24 µM.

Consider “J82 (bladder, adherent, top dose 5.24 µM)”, for which the AUC is 0.975 and the IC50 was > 5.24 µM.

Consider “SAT (head and neck, adherent, top dose 5.24 µM)”, for which the AUC came to 0.973 and the IC50 is > 5.24 µM.

For the cell line “OCI-AML2 (acute myeloid leukaemia, suspension, top dose 5.24 µM)”, the AUC came out at 0.995 and the IC50 was > 5.24 µM.

Take “QIMR-WIL (acute myeloid leukaemia, suspension, top dose 5.24 µM)”: the AUC is 0.974 and the IC50 is > 5.24 µM.

As to “HO-1-u-1 (head and neck, adherent, top dose 5.24 µM)”, the AUC was 0.988 and the IC50 is > 5.24 µM.

Turning to “H2803 (mesothelioma, adherent, top dose 5.24 µM)”, the AUC is 0.974 and the IC50 is > 5.24 µM.

Consider “EVSA-T (breast, adherent, top dose 5.24 µM)”, for which the AUC was 0.991 and the IC50 was > 5.24 µM.

As to “TUR (B-cell lymphoma, suspension, top dose 5.24 µM)”, the AUC stood at 0.859 and the IC50 worked out at 3.81 µM.

Turning to “SF126 (glioma, adherent, top dose 5.24 µM)”, the AUC came out at 0.986 and the IC50 is > 5.24 µM.

Consider “CAL-72 (osteosarcoma, adherent, top dose 5.24 µM)”, for which the AUC came out at 0.984 and the IC50 is > 5.24 µM.

Consider “HCC1419 (breast, adherent, top dose 5.24 µM)”, for which the AUC was determined as 0.978 and the half-maximal inhibitory concentration (IC50) is > 5.24 µM.

Take “NCI-H526 (small cell lung carcinoma, suspension, top dose 5.24 µM)”: the AUC came out at 0.987 and the IC50 is > 5.24 µM.

For the cell line “SNU-449 (liver, adherent, top dose 5.24 µM)”, the AUC came out at 0.962 and the IC50 is > 5.24 µM.

Consider “22RV1 (prostate, adherent, top dose 5.24 µM)”, for which the AUC is 0.982 and the IC50 is > 5.24 µM.

In the case of “NCI-H446 (small cell lung carcinoma, semi-adherent, top dose 5.24 µM)”, the AUC turned out to be 0.978 and the IC50 is > 5.24 µM.

In the case of “CA46 (Burkitt lymphoma, suspension, top dose 5.24 µM)”, the AUC was 0.975 and the IC50 was > 5.24 µM.

With “BICR31 (head and neck, adherent, top dose 5.24 µM)”, the AUC is 0.988 and the IC50 was > 5.24 µM.

As for “JHH-2 (liver, adherent, top dose 5.24 µM)”, the AUC was 0.986 and the IC50 is > 5.24 µM.

On to “CGTH-W-1 (thyroid, adherent, top dose 5.24 µM)”, for which the AUC was determined as 0.984 and the IC50 is > 5.24 µM.

With “ML-1 (thyroid, adherent, top dose 5.24 µM)”, the AUC stood at 0.984 and the concentration for half-maximal inhibition (IC50) was > 5.24 µM.

With “SW1710 (bladder, adherent, top dose 5.24 µM)”, the AUC was found to be 0.986 and the IC50 is > 5.24 µM.

For the cell line “H3255 (lung adenocarcinoma, adherent, top dose 5.24 µM)”, the AUC is 0.982 and the IC50 is > 5.24 µM.

Turning to “AGS (stomach, adherent, top dose 5.24 µM)”, the AUC turned out to be 0.989 and the IC50 was > 5.24 µM.

With “HPAC (pancreas, adherent, top dose 5.24 µM)”, the AUC worked out at 0.977 and the IC50 was > 5.24 µM.

As to “H2869 (mesothelioma, adherent, top dose 5.24 µM)”, the AUC is 0.962 and the IC50 was > 5.24 µM.

With “BB65-RCC (kidney, adherent, top dose 5.24 µM)”, the AUC is 0.982 and the concentration for half-maximal inhibition (IC50) is > 5.24 µM.

With “MEG-01 (chronic myeloid leukaemia, suspension, top dose 5.24 µM)”, the AUC was determined as 0.975 and the IC50 is > 5.24 µM.

As for “NCI-H1876 (small cell lung carcinoma, adherent, top dose 5.24 µM)”, the AUC turned out to be 0.987 and the IC50 is > 5.24 µM.

Take “NCI-H841 (small cell lung carcinoma, adherent, top dose 5.24 µM)”: the AUC stood at 0.976 and the half-inhibitory concentration (IC50) is > 5.24 µM.

With “CAL-51 (breast, adherent, top dose 5.24 µM)”, the AUC is 0.99 and the 50% inhibitory concentration (IC50) was > 5.24 µM.

In the case of “Hs-578-T (breast, adherent, top dose 5.24 µM)”, the AUC was 0.987 and the IC50 was > 5.24 µM.

In the case of “RKO (large intestine, adherent, top dose 5.24 µM)”, the AUC was determined as 0.988 and the IC50 is > 5.24 µM.

Turning to “OV-90 (ovary, adherent, top dose 5.24 µM)”, the AUC turned out to be 0.979 and the IC50 is > 5.24 µM.

As to “LCLC-103H (large cell lung carcinoma, adherent, top dose 5.24 µM)”, the AUC is 0.989 and the IC50 is > 5.24 µM.

Regarding “NCI-H1792 (lung adenocarcinoma, adherent, top dose 5.24 µM)”, the AUC was determined as 0.98 and the IC50 was > 5.24 µM.

As for “YH-13 (glioma, adherent, top dose 5.24 µM)”, the AUC was 0.986 and the IC50 is > 5.24 µM.

Regarding “SK-N-FI (neuroblastoma, adherent, top dose 5.24 µM)”, the AUC is 0.978 and the IC50 was > 5.24 µM.

As for “NCI-H1568 (lung adenocarcinoma, adherent, top dose 5.24 µM)”, the AUC is 0.971 and the IC50 is > 5.24 µM.

For the cell line “VMRC-MELG (melanoma, adherent, top dose 5.24 µM)”, the AUC came to 0.989 and the IC50 is > 5.24 µM.

With “NK-92MI (lymphoid neoplasm, suspension, top dose 5.24 µM)”, the AUC worked out at 0.159 and the IC50 amounted to 0.0327 µM.

Turning to “AMO-1 (haematopoietic neoplasm, suspension, top dose 5.24 µM)”, the AUC came to 0.977 and the IC50 is > 5.24 µM.

On to “NCI-H1770 (non-small cell lung carcinoma, suspension, top dose 5.24 µM)”, for which the AUC stood at 0.992 and the IC50 was > 5.24 µM.

“T47D (breast, adherent, top dose 5.24 µM)”: the AUC turned out to be 0.97 and the IC50 is > 5.24 µM.

With “SNU-407 (large intestine, adherent, top dose 5.24 µM)”, the AUC was 0.983 and the IC50 was > 5.24 µM.

As for “LS-1034 (large intestine, adherent, top dose 5.24 µM)”, the AUC came out at 0.985 and the IC50 is > 5.24 µM.

“GI-ME-N (neuroblastoma, adherent, top dose 5.24 µM)”: the AUC came to 0.953 and the IC50 was > 5.24 µM.
